Measurements as given in a collection of fitness landscapes (doi:10.1126/science.1257360).
The other results are listed elsewhere or left out.

B1: PhoQ; a variant is named by its letters at X, in order, P23837 (parent)
chain: MKKLLRLFFPLSLRVRFLLATAAVVLVLSLAYGMVALIGYSVSFDKTTFRLLRGESNLFYTLAKWENNKLHVELPENIDKQSPTMTLIYDENGQLLWAQRDVPWLMKMIQPDWLKSNGFHEIEADVNDTSLLLSGDHSIQQQLQEVREDDDDAEMTHSVAVNVYPATSRMPKLTIVVVDTIPVELKSSYMVWSWFIYVLSANLLLVIPLLWVAAWWSLRPIEALAKEVRELEEHNRELLNPATTRELTSLVRNLNRLLKSERERYDKYRTTLTDLTHSLKTPLXXLQXXLRSLRSEKMSVSDAEPVMLEQISRISQQIGYYLHRASMRGGTLLSRELHPVAPLLDNLTSALNKVYQRKGVNISLDISPEISFVGEQNDFVEVMGNVLDNACKYCLEFVEISARQTDEHLYIVVEDDGPGIPLSKREVIFDRGQRVDTLRPGQGVGLAVAREITEQYEGKIVAGESMLGGARMEVIFGRQHSAPKDE

Variants of: B1
Assay: enrichment ratio after two sorts for PhoP signalling (ratio (wild type AVST 3.29)); higher = more functional
Conditions: with PhoP (E. coli)

Variant	enrichment ratio
AVVA	0.904
KYGL	≤ 0.25
SFLD	≤ 0.25
ARPG	≤ 0.25
STPK	≤ 0.25
EQQT	≤ 0.25
SAQF	0.953
LFDW	≤ 0.25
QLNG	≤ 0.25
ICYQ	≤ 0.25
HKQT	≤ 0.25
SGQK	≤ 0.25
ACPL	5.04
WLNS	≤ 0.25
SEYI	4.33
NNMQ	≤ 0.25
NDPH	≤ 0.25
FHIR	≤ 0.25
KPDR	≤ 0.25
MGSC	9.47
RQGS	≤ 0.25
NRKT	≤ 0.25
DIWK	≤ 0.25
HHDK	≤ 0.25
NMGN	≤ 0.25

Variant	enrichment ratio
AMCG	9.64
FYRF	≤ 0.25
IPLA	≤ 0.25
HGGH	≤ 0.25
ITFY	≤ 0.25
SEMA	13.6
KNRP	≤ 0.25
QDYC	≤ 0.25
EHNS	≤ 0.25
HVFN	≤ 0.25
LPMA	≤ 0.25
SYDI	≤ 0.25
VRAI	≤ 0.25
FIIW	≤ 0.25
SDPR	≤ 0.25
KQMK	≤ 0.25
WEDG	≤ 0.25
REKP	≤ 0.25
KFQI	≤ 0.25
WRSA	≤ 0.25
CSWY	≤ 0.25
NCVP	≤ 0.25
AEWK	≤ 0.25
PDAM	≤ 0.25
FKCC	≤ 0.25

Variant	enrichment ratio
TIAH	9.22
KVFA	≤ 0.25
IGFC	≤ 0.25
FIIT	≤ 0.25
LWEP	≤ 0.25
GKDA	≤ 0.25
TVTM	16.6
KSWT	≤ 0.25
RGCK	≤ 0.25
NYHG	≤ 0.25
TQKG	≤ 0.25
VCSN	≤ 0.25
YNYN	≤ 0.25
WSHS	≤ 0.25
EGRT	≤ 0.25
PVCW	≤ 0.25
KCRS	0.38
NFPV	≤ 0.25
HICD	≤ 0.25
WPIG	≤ 0.25
TWTL	≤ 0.25
IEHR	≤ 0.25
HMNF	≤ 0.25
MREQ	≤ 0.25
VYPW	≤ 0.25

Variant	enrichment ratio
LYDF	≤ 0.25
IFVI	≤ 0.25
MFTK	≤ 0.25
VETF	≤ 0.25
DMEM	≤ 0.25
RNDY	≤ 0.25
WPCE	≤ 0.25
HPVG	≤ 0.25
FDWP	≤ 0.25
QACN	≤ 0.25
VGCK	≤ 0.25
IRIW	≤ 0.25
QVPE	≤ 0.25
VFCL	≤ 0.25
QFFE	≤ 0.25
HSRI	≤ 0.25
FHVE	≤ 0.25
KLLK	≤ 0.25
IWLW	≤ 0.25
NAMV	≤ 0.25
INCF	2.89
SVHC	≤ 0.25
DSMV	≤ 0.25
FAPI	≤ 0.25
PIAY	≤ 0.25

Variant	enrichment ratio
TEEL	≤ 0.25
VSNT	≤ 0.25
TARY	≤ 0.25
SLYK	≤ 0.25
SCIS	4.23
KIWV	≤ 0.25
VWKQ	≤ 0.25
IYVN	≤ 0.25
TYDP	≤ 0.25
FDMD	≤ 0.25
AYGH	≤ 0.25
TQGH	18.9
RPGN	≤ 0.25
KWAG	≤ 0.25
MNYI	9.81
PYMY	≤ 0.25
TELR	2.77
VTPN	≤ 0.25
FESY	≤ 0.25
DHEH	≤ 0.25
CFHL	≤ 0.25
MLMG	≤ 0.25
DHRM	≤ 0.25
VRQS	≤ 0.25
PTAR	≤ 0.25

Variant	enrichment ratio
FRID	≤ 0.25
HPCD	≤ 0.25
SFQG	≤ 0.25
RCCS	≤ 0.25
SQVI	8.63
WRIP	≤ 0.25
MALK	≤ 0.25
GETK	≤ 0.25
HPTV	≤ 0.25
AVCK	16.2
EAFT	≤ 0.25
QFKI	≤ 0.25
TECS	26.8
LMNS	≤ 0.25
SHLN	2.15
NQKF	≤ 0.25
CLTP	≤ 0.25
IAFL	≤ 0.25
SAPI	10.2
IHWW	≤ 0.25
AYVD	≤ 0.25
RKSY	≤ 0.25
LIIG	≤ 0.25
SDAV	5.41
ENLL	≤ 0.25

Variant	enrichment ratio
FQPD	≤ 0.25
AWWR	≤ 0.25
TNRW	≤ 0.25
WQHQ	≤ 0.25
DLGC	0.982
HDLT	≤ 0.25
MFWG	≤ 0.25
DHLQ	≤ 0.25
RHQP	≤ 0.25
MEMI	0.468
SPGL	≤ 0.25
FFGG	≤ 0.25
DNLQ	≤ 0.25
MAIR	≤ 0.25
LAIW	≤ 0.25
APWV	≤ 0.25
FSIG	≤ 0.25
NDHN	≤ 0.25
GIFR	0.521
YYRQ	≤ 0.25
SRFG	≤ 0.25
EFHV	≤ 0.25
HSAV	≤ 0.25
TNYL	2.54
KLRG	≤ 0.25

Variant	enrichment ratio
AFVQ	≤ 0.25
ATGA	≤ 0.25
VEPD	≤ 0.25
QPCL	≤ 0.25
EKDV	≤ 0.25
AYLK	≤ 0.25
TCNK	≤ 0.25
PFQL	≤ 0.25
YGIN	≤ 0.25
YGNV	≤ 0.25
STGY	8.87
FEMS	5.74
TGLN	25.4
HIDW	≤ 0.25
EEQP	≤ 0.25
KVRE	≤ 0.25
KQHW	≤ 0.25
RATW	≤ 0.25
AFCN	≤ 0.25
LFDV	≤ 0.25
